# Experimental data reported in PubChem BioAssay AID1468 (National Center for Advancing Translational Sciences (NCATS), 2008).
# In all, about 280,000 compounds went through this assay and about 1,100 (0.39%) were called active. This list was built around the results that the source calls inconclusive (neither active nor inactive); the mix of calls is not that of the screen. The call rests on the fitted dose curve; in most records, active means well fitted inhibition curve with a large enough effect; inconclusive means small, poorly fitted or top-dose-only effect, or effect the other way; inactive means flat fitted curve, though single readings scatter. No potency is given beside an inconclusive call; the fits are too rough.
# Molecular target: Microtubule-associated protein tau (Homo sapiens) (UniProt P10636)
# UniProt P10636, sequence (P10636 whole entry, looked up): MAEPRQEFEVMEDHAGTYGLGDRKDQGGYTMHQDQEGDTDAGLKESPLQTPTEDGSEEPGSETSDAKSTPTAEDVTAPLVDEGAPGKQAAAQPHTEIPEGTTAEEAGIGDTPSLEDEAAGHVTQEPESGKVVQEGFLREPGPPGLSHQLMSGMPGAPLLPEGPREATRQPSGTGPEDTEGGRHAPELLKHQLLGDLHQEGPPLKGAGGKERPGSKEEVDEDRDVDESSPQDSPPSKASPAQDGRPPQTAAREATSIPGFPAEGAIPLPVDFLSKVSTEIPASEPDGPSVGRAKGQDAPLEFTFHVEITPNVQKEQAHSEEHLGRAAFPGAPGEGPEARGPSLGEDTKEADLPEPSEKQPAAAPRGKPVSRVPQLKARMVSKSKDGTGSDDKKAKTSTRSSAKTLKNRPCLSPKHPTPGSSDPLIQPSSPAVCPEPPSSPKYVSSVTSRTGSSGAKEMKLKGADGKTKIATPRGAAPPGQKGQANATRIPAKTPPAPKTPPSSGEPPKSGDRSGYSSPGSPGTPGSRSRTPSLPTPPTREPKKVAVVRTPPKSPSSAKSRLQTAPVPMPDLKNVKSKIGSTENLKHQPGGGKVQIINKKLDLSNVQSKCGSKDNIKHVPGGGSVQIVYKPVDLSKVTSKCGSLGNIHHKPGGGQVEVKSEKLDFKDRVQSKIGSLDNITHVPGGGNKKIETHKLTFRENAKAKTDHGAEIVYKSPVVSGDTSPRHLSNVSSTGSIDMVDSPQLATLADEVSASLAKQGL
# Assay: qHTS for Inhibitors of Tau Fibril Formation, Fluorescence Polarization; further: nearly all actives have a fitted effect of over 55% in size
# Settings: K18 P301L tau heparin fibrillization, Alexa594 FP, 6 h; series mostly up to 57.7 µM; activity, negative = inhibition: at the top concentration
# How it was run: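 Human tau K18 […] P301L fragment, 15 uM unlabeled plus 0.24 uM Alexa 594-labeled tau (final), with compound and 20 uM heparin in 100 mM sodium acetate pH 7; 6 hr at 37 C, then Alexa 594 FP read.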
# On the % scale 0 is the no-effect control and ±100 the full control effect; potency means the concentration at half of the fitted maximal effect; tags describe the fitted curve by direction and shape.
SMILES,Potency,"activity, negative = inhibition"
Cc1cc(-c2nnc(SCC(=O)N3C(C)CCCC3C)o2)no1 (stereo unspecified),"inconclusive [inhibitor, full curve, poor fit]",–
Cc1cccc(S(=O)(=O)NNC(=O)Cc2cccn2C)c1,–,inactive: 5.05%
CCOc1ccc(CC(=O)Nc2c(C(=O)Nc3ccccc3)oc3ccccc23)cc1OCC,"inconclusive [inhibitor, single point]",–
Cc1ccc(S(=O)(=O)c2cnc(SCC(=O)Nc3cccc(Cl)c3)nc2N)cc1C,"inconclusive [inhibitor, partial curve]",–
Cc1ccc(C2c3c(-c4cc(C)ccc4O)n[nH]c3C(=O)N2Cc2ccco2)cc1 (stereo unspecified),"inconclusive [inhibitor, single point]",–
COC(=O)[C@@]1(Cc2ccc(OC)cc2)[C@@H]2[C@@H](CC(=O)[C@H]2CC(=O)C(=O)N(C)C)CN1C(=O)c1ccccc1,inactive,–
COc1ccc(NC(=O)c2nc[nH]c2C(=O)N[C@@H](CC(C)C)C(=O)OC(C)(C)C)cc1,"inconclusive [inhibitor, partial curve]",–
Cc1ccc(NC(=O)CSc2n[nH]c(C)c2[N+](=O)[O-])cc1C,"inconclusive [inhibitor, partial curve, poor fit]",–
CC(=O)Nc1ccc(NC(=O)C(C)OC(=O)/C=C/c2cn(-c3ccccc3)nc2-c2cccnc2)cc1 (stereo unspecified),"inconclusive [inhibitor, partial curve]",–
O=C(Cn1c(=O)c2ccccc2n(CC(=O)Nc2ccc(Cl)cc2)c1=O)NCCc1ccccc1,"inconclusive [inhibitor, full curve, poor fit]",–
CCc1ccc(-n2nc3ccc(NC(=O)c4ccc5c(c4)OCO5)cc3n2)cc1,"inconclusive [inhibitor, full curve, poor fit]",–
COc1ccc(C(=O)Oc2c(Sc3ccc(Cl)cc3)c(C)nn2C(C)(C)C)cc1OC,"inconclusive [inhibitor, partial curve, poor fit]",–
CN1C(=O)NC(c2ccccc2)C2=C1CN(Cc1ccco1)C2=O (stereo unspecified),"inconclusive [inhibitor, single point]",–
CCOC(=O)c1cnc(SC)nc1Oc1cccc(NS(=O)(=O)c2ccc(C)cc2)c1,"inconclusive [inhibitor, single point]",–
O=S(=O)(Nc1cccc(-c2ccc(N3CCCCCC3)nn2)c1)c1ccc(F)cc1,"inconclusive [inhibitor, single point]",–
c1cncc(CNc2nc(-c3ccc4c(c3)OCO4)nc3ccccc23)c1,"inconclusive [inhibitor, partial curve, poor fit]",–
Oc1c(C(c2ccccn2)N2CCC(Cc3ccccc3)CC2)cc(Cl)c2cccnc12 (stereo unspecified),–,inactive: 5.89%
Cc1ccc(C)c(C(=O)COc2ccc(C)nc2[N+](=O)[O-])c1,"inconclusive [inhibitor, partial curve]",–
COc1cccc(C(=O)Nc2ccc(S(=O)(=O)Nc3nccc(C)n3)cc2)c1,–,inactive: -2.69%
O=c1c2sc3ccccc3c2n(Cc2ccccc2Cl)c(=O)n1Cc1ccccc1,"inconclusive [inhibitor, partial curve]",–
CC(=O)c1sc2nc(C)c3c(c2c1N)CCCC3,–,inactive: 1.2%
CCOc1cccc(/C=N/N2C(=O)CSC2=S)c1O,"inconclusive [inhibitor, single point]",–

SMILES,Potency,"activity, negative = inhibition"
Cc1ccc2c(CC(=O)NCc3ccccc3)coc2c1C,–,inactive: 0.843%
COc1ccccc1CNC(=O)C1CCN(S(=O)(=O)c2c(C)noc2/C=C/c2c(C)cc(C)cc2C)CC1,–,inactive: -6.28%
O=C(Nc1ccc2nc(SCCOc3ccccc3)sc2c1)c1cccs1,"inconclusive [inhibitor, partial curve]",–
CCc1ccc(/C=C/C(=O)C2C(=O)c3ccccc3C2=O)cc1,–,inactive: 7.24%
O=C(Nc1ccc(C(F)(F)F)cc1)c1cc(S(=O)(=O)NC2CCCCC2)ccc1F,"inconclusive [inhibitor, single point]",–
C/C(Cl)=C/Cn1c(SCC(C)C)nc2c1c(=O)[nH]c(=O)n2C,–,inactive: 2.93%
CCc1ccc(NC(=O)c2ccc(F)c(S(=O)(=O)NC3CCCCCC3)c2)cc1,"inconclusive [inhibitor, partial curve]",–
COc1cccc(CNC(=O)CSc2ncc3c(n2)-c2cc(Cl)ccc2N(C)S3(=O)=O)c1,"inconclusive [inhibitor, single point]",–
O=C(N/N=C/c1ccncc1)c1cccc(N/N=C/c2ccncc2)c1,–,inactive: 3.31%
CCc1cccc(C)c1NS(=O)(=O)c1cc(-c2cc(C)no2)ccc1C,"inconclusive [inhibitor, single point]",–
COC(=O)Cn1c2ccc(OC)cc2c2nc(C)sc21,"inconclusive [inhibitor, single point]",–
Cc1ccc(-n2nnc(-c3nsc(NC(=O)c4ccccc4)n3)c2C)cc1,"inconclusive [inhibitor, single point]",–
c1ccc2c(Nc3nc4c(s3)CCCC4)cccc2c1,–,inactive: 3.72%
Clc1ccc2c(c1)c1cc(Cl)ccc1n2CN1CCOCC1,active: 12.6 µM,–
COc1cc(OC)nc(-n2ncc(Br)c(Br)c2=O)n1,"inconclusive [inhibitor, partial curve]",–
O=C(Nc1cccnc1)c1ccc(COc2cc(Cl)ccc2Cl)o1,"inconclusive [inhibitor, single point]",–
COc1ccc(N=Cc2cc(Cc3ccccc3Cl)cc([N+](=O)[O-])c2O)cc1OC,"inconclusive [inhibitor, single point]",–
COC(=O)c1c(-c2cccs2)csc1NC(=O)c1cc(OC)cc(OC)c1,"inconclusive [inhibitor, single point]",–
Cc1ccc(NC2=CC(=O)C(=O)c3ccccc32)cc1,"inconclusive [inhibitor, single point]",–
O=C(CSc1ncnc2scc(-c3ccc(F)cc3)c12)c1ccc2c(c1)OCCO2,"inconclusive [inhibitor, single point]",–
O=C(CSc1nnnn1-c1ccc2c(c1)OCCO2)OC1CCCCC1,–,inactive: 0.195%
Clc1cccc(-n2ncc3c(NCCCc4ccccc4)ncnc32)c1,"inconclusive [inhibitor, partial curve]",–

SMILES,Potency,"activity, negative = inhibition"
O=[N+]([O-])c1ccc(N2CCN(C(=S)NCc3ccc(Cl)cc3)CC2)cc1,"inconclusive [inhibitor, full curve]",–
CCOc1ccc(C2Nc3ccc4ccccc4c3-c3c2c(=O)oc2ccccc32)cc1 (stereo unspecified),"inconclusive [inhibitor, single point]",–
COc1ccc(-c2ccnc(SCC(=O)c3ccc(Cl)cc3)n2)cc1,"inconclusive [inhibitor, partial curve]",–
O=c1cc(-c2ccccc2Cl)oc2cc(O)cc(O)c12,–,inactive: -0.668%
Cc1cc(C)nc(N/N=C/c2ccccc2Cl)n1,"inconclusive [activator, full curve, poor fit]",–
COc1cc(C2Nc3cccc4cccc(c34)N2)cc(OC)c1O,"inconclusive [inhibitor, single point]",–
CC(C)N1CCc2c(sc(N)c2C#N)C1,"inconclusive [inhibitor, partial curve, poor fit]",–
COC(=O)CCCC1=CC2=C(c3ccccc3)C(=O)C(C)(OC(=O)C3CCCC3)C(=O)C2=CN1CC(C)C (stereo unspecified),inactive,–
NNC(=O)c1ccc(COc2cccc3cccnc23)cc1,–,inactive: -1.6%
Cc1cccc(OCc2ccc(-c3nc(C#N)c(N4CCN(c5ccccc5)CC4)o3)o2)c1,–,inactive: -7.47%
O=C(Nc1ccc(N2CCOCC2)cc1)c1cccc(S(=O)(=O)N2CCC(Cc3ccccc3)CC2)c1,"inconclusive [activator, full curve, poor fit]",–
CCc1cccc(C)c1Nc1c(-c2ccc(N(C)C)cc2)nc2ncccn12,"inconclusive [inhibitor, single point]",–
O=C(N/N=C/c1cccc([N+](=O)[O-])c1)C1COc2ccccc2O1 (stereo unspecified),–,inactive: 1.71%
COc1cccc(NC(=O)CSc2nc3c(sc4ccccc43)c(=O)n2CCN(C)C)c1,"inconclusive [inhibitor, partial curve]",–
C=CCn1c(C)cc(C(=O)CSc2nnc(NCc3ccccc3)s2)c1C,"inconclusive [activator, single point]",–
Cc1ccc(-n2nnnc2SCC(=O)c2ccc3c(c2)NC(=O)CO3)c(C)c1,"inconclusive [inhibitor, single point]",–
C=CCc1cccc(/C=N/c2ncccc2O)c1O,–,inactive: -3.3%
CC(C)C1C(c2ccccc2)NC(c2ccccc2)CC1(O)c1ccc(F)cc1 (stereo unspecified),–,inactive: -5.17%
COc1cccc(-c2nc(N)nc(SC)c2C#N)c1,"inconclusive [inhibitor, single point]",–
COc1ccc(COC(=O)N/N=C2/C[C@@H](O)[C@@H](O)[C@@H]3[C@@H]4C(=O)N(Cc5ccc6c(c5)OCO6)C(=O)[C@H]4CC[C@H]23)cc1,–,inactive: -14.2% [at 11.6 µM]
CN1c2ccsc2C(O)=C(C(=S)Nc2ccc(F)c(Cl)c2)S1(=O)=O,"inconclusive [inhibitor, single point]",–
O=C(N/N=C/c1cc2c(cc1Cl)OCO2)c1ccc2c(c1)OCCO2,"inconclusive [inhibitor, single point]",–
